Results on 60 sequences are retold here after paper PMC6451091.

The other results are listed elsewhere or left out. For part of these data: At the low end of the ranking the order means little. For part of these data: Measured with an extract: partners may take part in the binding.

What all share (settings): 20 mM HEPES pH 7.9, 100 mM NaCl, 1 mM DTT, 0.2 mg/mL BSA, 0.02% Triton X-100, 2% milk, 0.4 mg/mL salmon testes DNA; 1 h; temperature not stated; high values mean tight binding; double strand, one strand shown; sequences stand for … in GCCTAGCAC…GTGCTAGGTCTTGATTCGCTTGACGCTGCTG
For one assay, the target named is PU.1 (IVT) (UniProt P17947). The assay is described as follows: protein-binding microarray (PBM).
Assay [1] concerns the target PU.1 (endogenous, THP-1 nuclear extract) (UniProt P17947). The assay is described as follows: nuclear extract protein-binding microarray (nextPBM).
Assay [2] addresses T1, FLI1 (endogenous, THP-1 nuclear extract) (UniProt Q01543).
T1 sequence: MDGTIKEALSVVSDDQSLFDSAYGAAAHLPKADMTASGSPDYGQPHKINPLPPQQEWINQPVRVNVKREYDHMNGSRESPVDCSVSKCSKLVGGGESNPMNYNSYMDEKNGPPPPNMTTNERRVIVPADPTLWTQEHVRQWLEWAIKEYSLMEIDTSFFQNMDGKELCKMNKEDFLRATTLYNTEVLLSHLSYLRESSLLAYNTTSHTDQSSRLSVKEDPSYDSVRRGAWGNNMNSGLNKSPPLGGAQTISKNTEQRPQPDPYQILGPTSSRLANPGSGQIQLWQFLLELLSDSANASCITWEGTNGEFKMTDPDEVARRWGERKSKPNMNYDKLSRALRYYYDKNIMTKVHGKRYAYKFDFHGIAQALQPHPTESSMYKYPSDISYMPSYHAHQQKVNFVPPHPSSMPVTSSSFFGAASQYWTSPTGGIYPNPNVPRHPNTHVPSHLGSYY
The description is as above.

AAAAAGAGGAAGTGCTACTT: the values for the binding signal (with PU.1 (IVT); in assay [1]; in assay [2]) were 8.88 z-score, 7.32 z-score and 4.45 z-score, respectively.
In the case of AGAAAGAGGAAGCCGAGAGC, the binding signal with PU.1 (IVT) was 4.68 z-score; in assay [1], 5.77 z-score; in assay [2] it was 2.3 z-score.
AAAATGAGGAACTGATGCGG: the binding signal is 6.61 z-score in the assay with PU.1 (IVT), 6.72 z-score in assay [1] and 2.36 z-score in assay [2].
On to GATAAGAGCAAGTCCTCTGT, for which the binding signal in the assay with PU.1 (IVT) is -0.265 z-score; in assay [1], -0.159 z-score; in assay [2], -0.156 z-score.
For the sequence TTTGAAAGGAAGTGAAGAGG, the binding signal was found to be 1.78 z-score in the assay with PU.1 (IVT), 1.87 z-score in assay [1] and 2.36 z-score in assay [2].
On to GGGATGAGGAAGTCAACTTT, for which the binding signal with PU.1 (IVT) worked out at 4.92 z-score; in assay [1], 5.95 z-score; in assay [2], 2.22 z-score.
On to CAAAAGCAGAAGTGGCCAGG, for which the values for the binding signal (with PU.1 (IVT); in assay [1]; in assay [2]) were 5.04 z-score, 6.36 z-score and 1.6 z-score, respectively.
Taken in the same sequence, the figures for CTAATAGGGAAGTGGCCAAG were 4.86 z-score, 5.49 z-score and 1.63 z-score.
CAAAAGAGGAAGTCATTTAT: the binding signal in the assay with PU.1 (IVT) is 8.11 z-score; in assay [1] it was 7.43 z-score; in assay [2] it was 4.14 z-score.
On to GAATAGAGGAAGTGGGGCCG, for which the binding signal in the assay with PU.1 (IVT) was found to be 5.54 z-score; in assay [1], 6.65 z-score; in assay [2], 2.95 z-score.
As for TTAATGAGGAAGTGCTGTCA, the binding signal in the assay with PU.1 (IVT) stood at 6.5 z-score; in assay [1] it was 6.9 z-score; in assay [2], 2.85 z-score.
CGCAAGGGGAACTACTGTGC: the results for the binding signal (with PU.1 (IVT); in assay [1]; in assay [2]) were 3.07 z-score, 2.77 z-score and 0.6 z-score, respectively.
With GGAAAGAGGAACTAGCAAAG, the binding signal was 6.7 z-score with PU.1 (IVT), 6.75 z-score in assay [1] and 2.77 z-score in assay [2].
Regarding AAAAAAAGGATCTGGCTAGA, the binding signal with PU.1 (IVT) is 0.682 z-score; in assay [1], 0.671 z-score; in assay [2], -0.466 z-score.
Taken in the same sequence, the figures for AGGAAGAGGAAGAGGAAGAA were 4.95 z-score, 5.31 z-score and 3.01 z-score.
On to GGAAACAGGAAGTGAGATAA, for which the results for the binding signal (with PU.1 (IVT); in assay [1]; in assay [2]) were 6.91 z-score, 7.04 z-score and 5.44 z-score, respectively.
As for GAGAAGAGGAAGTCAAATAA, the binding signal in the assay with PU.1 (IVT) amounted to 5.64 z-score; in assay [1], 6.36 z-score; in assay [2], 3.2 z-score.
Consider TGAATGAGGAACTGTCAAAC, for which the binding signal in the assay with PU.1 (IVT) was 4.51 z-score; in assay [1], 4.95 z-score; in assay [2] it was 1.2 z-score.
Consider CTCCAGAGGAAGTGGGGAAT, for which the binding signal with PU.1 (IVT) stood at 2.11 z-score; in assay [1], 2.67 z-score; in assay [2] it was 2.64 z-score.
As for GAAGAGAGGAAGTGAAATTG, the values for the binding signal (with PU.1 (IVT); in assay [1]; in assay [2]) were 5.29 z-score, 5.14 z-score and 3.11 z-score, respectively.
AGAAAGAGGAAGTGATGTTA: the binding signal with PU.1 (IVT) came to 8.46 z-score; in assay [1], 7.27 z-score; in assay [2], 4.36 z-score.
For TAAGGAGGGAAGTGAGACTG, in that order: 2.08 z-score, 2.59 z-score and 1.2 z-score.
On to CAAAAGAGGAAGTACAGCCA, for which the results for the binding signal (with PU.1 (IVT); in assay [1]; in assay [2]) were 8.06 z-score, 7.19 z-score and 3.97 z-score, respectively.
For TTTTTGAGGAACTGCCAGAC, in that order: 3.81 z-score, 4.2 z-score and 1.13 z-score.
For the sequence CGAAAGAGGAAGTGCCTACA, the binding signal worked out at 7.86 z-score with PU.1 (IVT), 7.4 z-score in assay [1] and 4.12 z-score in assay [2].
Taken in the same sequence, the figures for AGAGAAAGGAAGTGGCCTTT were 2.65 z-score, 2.5 z-score and 2.53 z-score.
On to AATGGCAGGAAGTGAAATCA, for which the results for the binding signal (with PU.1 (IVT); in assay [1]; in assay [2]) were 2.15 z-score, 2.31 z-score and 4.21 z-score, respectively.
As for CAGGGGAGGAAGTGGGTTTA, the values for the binding signal (in the assay with PU.1 (IVT); in assay [1]; in assay [2]) were 3.67 z-score, 3.32 z-score and 2.88 z-score, respectively.
On to ACGAAGAGGAAGTAAAAGTG, for which the binding signal in the assay with PU.1 (IVT) was 5.9 z-score; in assay [1], 6.25 z-score; in assay [2], 3.33 z-score.
Taken in the same sequence, the figures for GGAAAGGGGAACTGGACCCA were 4.62 z-score, 5.43 z-score and 1.55 z-score.
As to AAAAAAAGGAACCGGCTAGA, the binding signal was 2.65 z-score in the assay with PU.1 (IVT), 2.78 z-score in assay [1] and 0.725 z-score in assay [2].
TAAATGAGGAAGTGAGCTAG: the figures for the binding signal (in the assay with PU.1 (IVT); in assay [1]; in assay [2]) were 7.58 z-score, 7.34 z-score and 3.77 z-score, respectively.
With AGAAAAAGGAAGTGAGCAAA, the binding signal with PU.1 (IVT) stood at 5.53 z-score; in assay [1], 5.79 z-score; in assay [2], 2.64 z-score.
As to ATGGGGAGGAAGTGGTAAGA, the binding signal in the assay with PU.1 (IVT) was determined as 2.95 z-score; in assay [1] it was 2.95 z-score; in assay [2] it was 2.84 z-score.
With TCAAAGGGGAAGTGAGATTT, the values for the binding signal (with PU.1 (IVT); in assay [1]; in assay [2]) were 5.86 z-score, 6.5 z-score and 2.96 z-score, respectively.
Taken in the same sequence, the figures for CAAATGAGGAAGTGGAGTCA were 7.9 z-score, 7.26 z-score and 4.27 z-score.
As for TGCAGGTGGAAGTACTGTGG, the binding signal in the assay with PU.1 (IVT) was determined as 1.43 z-score; in assay [1], 1.43 z-score; in assay [2] it was 0.75 z-score.
Regarding CAAATCAGGAACTGATGCGG, the results for the binding signal (with PU.1 (IVT); in assay [1]; in assay [2]) were 3.39 z-score, 3.84 z-score and 1.26 z-score, respectively.
For AAAAAAAGGAAGTGGAATTA, in that order: 6.73 z-score, 6.64 z-score and 3.14 z-score.
AAAAAGAGGAAGTGCTTTTC: the binding signal was determined as 8.49 z-score with PU.1 (IVT), 7.47 z-score in assay [1] and 4.56 z-score in assay [2].
For CGACAGGGGAAGTGCTAAAC, the binding signal stood at 3.21 z-score in the assay with PU.1 (IVT), 2.84 z-score in assay [1] and 1.72 z-score in assay [2].
Take GGAAAGAGGAAGTCAAATTG: the results for the binding signal (with PU.1 (IVT); in assay [1]; in assay [2]) were 7.8 z-score, 7.34 z-score and 4.11 z-score, respectively.
Turning to AAGCAGAGGAAGTGAGATTT, the values for the binding signal (with PU.1 (IVT); in assay [1]; in assay [2]) were 3.71 z-score, 3.01 z-score and 2.88 z-score, respectively.
Consider AAAAAGAGGAAGTAAAAGAC, for which the binding signal was 8.93 z-score with PU.1 (IVT), 7.41 z-score in assay [1] and 4.45 z-score in assay [2].
For the sequence GCAATGAGGAACTGGAGTCT, the binding signal with PU.1 (IVT) was found to be 3.85 z-score; in assay [1] it was 4.15 z-score; in assay [2], 0.886 z-score.
Take GATAAGAGGAAGTCCTCTGT: the binding signal with PU.1 (IVT) was determined as 5.99 z-score; in assay [1] it was 6.47 z-score; in assay [2], 3.12 z-score.
Turning to CAAAAGAGGAACTCTGAAAG, the binding signal with PU.1 (IVT) was found to be 5.64 z-score; in assay [1] it was 6.45 z-score; in assay [2] it was 1.93 z-score.
As to CAGAGGAGGAAGTGGGTAGA, the binding signal turned out to be 4.73 z-score in the assay with PU.1 (IVT), 4.72 z-score in assay [1] and 2.82 z-score in assay [2].
Regarding CAATAGAGGAAGTGGTTAAG, the binding signal worked out at 6.51 z-score in the assay with PU.1 (IVT), 6.63 z-score in assay [1] and 3.42 z-score in assay [2].
Consider TCAGGGAGGAAGTAGGTTGG, for which the binding signal with PU.1 (IVT) was found to be 3.95 z-score; in assay [1] it was 4.25 z-score; in assay [2], 2.91 z-score.
GCCTAGGGGAACTGCCTGTG: the binding signal with PU.1 (IVT) is 1.77 z-score; in assay [1], 1.93 z-score; in assay [2] it was 0.19 z-score.
Regarding AGTTGGAGGAAGTGGCACTT, the binding signal worked out at 2.78 z-score in the assay with PU.1 (IVT), 3.15 z-score in assay [1] and 2.18 z-score in assay [2].
Regarding GTTTTGAGGAACTGGATTCT, the binding signal with PU.1 (IVT) amounted to 4.57 z-score; in assay [1], 4.79 z-score; in assay [2], 1.25 z-score.
In the case of GAATACAGGAAGTCCCATAG, the binding signal in the assay with PU.1 (IVT) came out at 4.5 z-score; in assay [1], 5.34 z-score; in assay [2] it was 4.05 z-score.
Take GAAAAAGGGAAGTGGCTCAT: the figures for the binding signal (with PU.1 (IVT); in assay [1]; in assay [2]) were 7.13 z-score, 7.13 z-score and 2.76 z-score, respectively.
In the case of CAAAAGGGGAAGTGAGAAAT, the binding signal with PU.1 (IVT) worked out at 7.82 z-score; in assay [1] it was 7.36 z-score; in assay [2] it was 3.83 z-score.
In the case of ATGGAGAGGAAGTGATGCCT, the binding signal came to 4.09 z-score with PU.1 (IVT), 3.94 z-score in assay [1] and 2.79 z-score in assay [2].
In the case of CGAATGAGGAAATGAAGGCA, the binding signal with PU.1 (IVT) was 3.57 z-score; in assay [1], 3.7 z-score; in assay [2], 1.96 z-score.
Regarding GGAAAGAGGAAGTGCGAGCA, the figures for the binding signal (in the assay with PU.1 (IVT); in assay [1]; in assay [2]) were 7.7 z-score, 7.22 z-score and 4.29 z-score, respectively.
Consider GGAAAGAGGAACTCTCAGCA, for which the values for the binding signal (with PU.1 (IVT); in assay [1]; in assay [2]) were 5.92 z-score, 6.12 z-score and 2.54 z-score, respectively.
